About 25,000 (6.9%) of roughly 360,000 compounds were called active. This list was built around the results that the source calls inconclusive (neither active nor inactive); the mix of calls is not that of the screen. Calls come from the whole dose curve; as a rule, active = well fitted inhibition curve with a large enough effect; inconclusive = small, poorly fitted or top-dose-only effect; inactive = flat fitted curve, though single readings scatter. Potencies beside an inconclusive call are fits to weak or partial responses and may not hold up.
Target: Luciferin 4-monooxygenase (Photinus pyralis) (UniProt P08659)
Experiment: qHTS profiling assay for firefly luciferase inhibitor/activator using purifed enzyme and Km concentrations of substrates (counterscreen for miR-21 project); note: nearly all actives have a fitted effect of over 55% in size;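 for activity change, negative = inhibition: plate controls were vehicle for no effect and reference inhibitor for full effect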
Details: purified FLuc, luminescence inhibition; activity change, negative = inhibition: at 57.5 µM (top of the series)
Method in brief: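 Purified P. pyralis luciferase (10nM final) with 10uM D-luciferin and 10uM ATP (Km levels) in 50mM Tris acetate pH 7.5, 10mM Mg acetate, 0.01% Tween-20, 0.05% BSA; qHTS 6-point titration, ~60 µM downward; luminescence read.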
Potency is the fitted concentration of half-maximal effect; tags give direction and shape of the fitted curve.

Sequence of UniProt P08659 (P08659 whole entry, looked up): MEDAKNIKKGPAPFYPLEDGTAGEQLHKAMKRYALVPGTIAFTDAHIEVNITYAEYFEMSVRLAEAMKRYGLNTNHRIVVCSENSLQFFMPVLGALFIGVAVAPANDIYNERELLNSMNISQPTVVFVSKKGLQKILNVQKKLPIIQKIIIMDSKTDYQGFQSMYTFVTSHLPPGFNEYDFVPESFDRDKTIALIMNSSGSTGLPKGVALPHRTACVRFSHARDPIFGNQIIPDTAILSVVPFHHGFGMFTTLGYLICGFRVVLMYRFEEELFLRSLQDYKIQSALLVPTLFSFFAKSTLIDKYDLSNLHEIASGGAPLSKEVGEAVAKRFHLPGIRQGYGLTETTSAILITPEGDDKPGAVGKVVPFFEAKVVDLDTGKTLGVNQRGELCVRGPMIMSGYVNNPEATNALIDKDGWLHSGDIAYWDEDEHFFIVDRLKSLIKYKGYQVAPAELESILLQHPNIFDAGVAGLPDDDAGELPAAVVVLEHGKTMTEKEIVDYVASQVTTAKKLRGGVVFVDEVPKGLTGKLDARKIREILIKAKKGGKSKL

Compound	Potency	activity change, negative = inhibition
COc1ccc(-c2sc3cc4c(cc3c2C#CCO)OCO4)cc1	inconclusive: 6.75 µM [inhibitor, single point]	
C=CCOC(=O)/C(=C\C=C\c1ccccc1)NC(=O)c1ccccc1	inconclusive: 23.9 µM [inhibitor, single point]	
CCc1ccccc1Nc1nn2c(=O)c3ccc(C(=O)NCc4ccc(C)cc4)cc3nc2s1		inactive: 4.6%
Cc1ccc(NC(=O)c2noc(C(C)C)c2[N+](=O)[O-])cc1	inconclusive: 37.9 µM [inhibitor, single point]	
O=C(CSc1ccccn1)Nc1ccc2c(c1)OCO2	inconclusive: 19 µM [inhibitor, partial curve]	
Cc1cc(/C=C(/C#N)c2nc3ccccc3[nH]2)c(C)n1-c1ccccc1C(=O)O	inconclusive: 30.1 µM [inhibitor, single point]	
Cc1ccc(NC(=O)O/N=C/c2ccc(Br)cc2)cc1	inconclusive: 9.53 µM [inhibitor, partial curve, poor fit]	
CN(C)C(=O)c1cnc(-c2ccccc2)nc1-c1ccccc1		inactive: -8.43%
COc1cccc(/C=C/C(=O)c2ccc(NS(=O)(=O)c3ccc(C)cc3)cc2)c1	active: 13.5 µM	
Nc1nonc1-c1noc(-c2ccc(Br)o2)n1	inconclusive: 26.9 µM [inhibitor, partial curve, poor fit]	
Cc1ccsc1C(=O)NNC(=O)C1C2C=CC(C2)C1C(=O)O (configuration not stated)	active: 23.9 µM	
CC1CCN(S(=O)(=O)c2ccc(NC(=O)C3CCN(C(=O)c4ccco4)CC3)cc2)CC1		inactive: -1.95%
O=C1C(Cl)=C(N2CCN(Cc3ccccc3)CC2)C(=O)N1Cc1ccccc1		inactive: 0.17%
O=C(N/N=C/c1c[nH]c2ccccc12)c1ccc(Cl)cc1	active: 7.57 µM	
O=C(/C=C/c1ccc([N+](=O)[O-])cc1)NCCSCc1ccco1	inconclusive: 26.9 µM [inhibitor, partial curve, poor fit]	
C=CCOc1cccc(/C=C/c2nc3ccccc3c(=O)[nH]2)c1	active: 1.51 µM	
O=C(COC(=O)c1n[nH]c(=O)c2ccccc12)c1ccccc1	inconclusive: 19 µM [inhibitor, partial curve]	
CC1CCN(C(=O)COC(=O)c2ccc(F)c(S(=O)(=O)N3CCOCC3)c2)CC1	inconclusive: 16.9 µM [inhibitor, partial curve]	
COc1ccccc1NC(=S)N1CCC(NC(=O)c2ccco2)CC1		inactive: 3.27%
O=C(NC1CCCCCC1)C1CCN(C(=O)N2CCOc3ccc(Cl)cc32)CC1		inactive: 1.07%
N=c1oc2cc(O)ccc2cc1C(=O)Nc1ccc(Cl)cc1	active: 3.01 µM	
CSc1nc(N)n2nc(C(C)(C)C)cc2n1	active: 16.9 µM	
Cc1cc2[nH]c(=O)c(=O)[nH]c2cc1S(=O)(=O)NCc1ccc(F)cc1		inactive: -1.68%
COc1ccc(CNC(=O)Cn2c(=O)n(CC(=O)N3CCCCC3)c(=O)c3sccc32)cc1		inactive: -0.773%

Compound	Potency	activity change, negative = inhibition
Cc1ccccc1OCCn1cc(C(=O)O)c2ccccc21	inconclusive: 26.9 µM [inhibitor, partial curve, poor fit]	
CCCN1/C(=C2/SC(=S)N(CC)C2=O)C=Cc2ccccc21	inconclusive: 12 µM [inhibitor, partial curve]	
CCCn1nc(C(=O)Nc2ccc3c(c2)OCO3)c2ccccc2c1=O	inconclusive: 23.9 µM [inhibitor, partial curve, poor fit]	
Oc1c(Cl)cc(Cl)cc1/C=C/c1ccc2cccc(O)c2n1	inconclusive: 23.9 µM [inhibitor, partial curve, poor fit]	
COC(=O)CSc1nnc(-c2ccccc2OC)o1	inconclusive: 21.3 µM [inhibitor, single point]	
COC(=O)c1ccc(CSCc2ccc(C(=O)OC)o2)o1		inactive: -3.29%
COc1ccc(-c2noc(-c3ccc(C)cc3)n2)cc1	active: 1.51 µM	
COc1cccc(/C=N/Nc2nn3cnnc3c3ccccc23)c1O		inactive: -5.93%
Cc1ccc(O)c(CNc2cnc3ccccc3c2)c1	inconclusive: 26.9 µM [inhibitor, single point]	
O=C(COC(=O)CC1CC2CCC1C2)Nc1cccc(S(=O)(=O)NC2=NCCCCC2)c1 (configuration not stated)	inconclusive: 37.9 µM [inhibitor, partial curve, poor fit]	
CCC(CC)=N/N=C/c1c(O)n(CC)c2cc(C3=NNC(=O)CC3)ccc12	inconclusive: 21.3 µM [inhibitor, partial curve]	
Cc1ccc2c(CN3CCCc4ccccc43)cc(=O)oc2c1C	inconclusive: 16.9 µM [inhibitor, partial curve, poor fit]	
CN(C)C=Nc1ncc2c([nH]c3ccccc32)c1C#N	inconclusive: 26.9 µM [inhibitor, partial curve]	
C=CCOc1c(CNc2cccc(C(=O)O)c2)cccc1OC	active: 15.1 µM	
COc1ccc(OCC(=O)Nc2ccc3c(c2)OCO3)cc1	inconclusive: 16.9 µM [inhibitor, partial curve]	
Cc1ccc(-c2csc3ncnc(Oc4ccc5c(C)cc(=O)oc5c4)c23)cc1		inactive: 0.617%
O=C1C2CC=CCC2C(=O)N1c1ccc(NCCc2ccc(O)cc2)c([N+](=O)[O-])c1 (configuration not stated)	inconclusive: 15.1 µM [inhibitor, partial curve]	
CCCNC(=O)C(=O)NCC(c1ccc2c(c1)OCO2)N1CCOCC1 (configuration not stated)		inactive: -0.2%
COc1ccc(OCc2ccc(-c3nc(C#N)c(N4CCC(C)CC4)o3)o2)cc1		inactive: -7.38%
O=C(CSc1nnc(Cc2ccccc2)o1)c1ccccc1	inconclusive: 37.9 µM [inhibitor, single point]	
CCCCc1nnc(NC(=O)CSc2nc(O)c(-c3ccccc3)c(=O)[nH]2)s1	inconclusive: 12 µM [inhibitor, partial curve]	
O=C(NCCC(=O)N1CCc2ccccc21)c1ccco1	inconclusive: 23.9 µM [inhibitor, partial curve]	
O=c1oc(-c2ccco2)nc2ccccc12	inconclusive: 21.3 µM [inhibitor, partial curve, poor fit]	

Reference: PubChem BioAssay AID588342 (National Center for Advancing Translational Sciences (NCATS), 2011)
